In the supplement of paper PMC12230231:

tested on: SIVsab (simian immunodeficiency virus of sabaeus monkeys), single-cycle GFP reporter, in CRFK cells; test: enrichment among uninfected cells over input (fold); higher = stronger restriction; conditions: library: human / rhesus combinations
Description: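 Pools of CRFK cells expressing variants of the TRIM5α v1 loop were challenged with the single-cycle reporter, sorted by GFP and sequenced; mean of two replicates.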

Row | Sequence | enrichment
1 | MASGILVNVKEEVTCPICLELLTQPLSLDCGHSFCQACLTANHKKSMLDKGESSCPVCRISYQPENIRPNRHVANIVEKLREVKLSPEGQKVDHCARHGEKLLLFCQEDGKVICWLCERSQEHRGHHTFLTEEVAREYQVKLQAALEMLRQKQQEAEELEADIREEKASWKTQIQYDKTNVLADFEQLRDILDWEESNELQNLEKEEEDILKSLTNSETEMVQQTQSLRELISDLEHRLQGSVMELLQGVDGVIKRTENVTLKKPETFPKNQRRVFRAPDLKGMLEVFRELTDVRRYWVDVTVAPNNISCAVISEDKRQVSSPKPQIIYGAPGTLFQSFVNFNYCTGILGSQSITSGKHYWEVDVSKKTAWILGVCAGFQPDAMCNIEKNENYQPKYGYWVIGLEEGVKCSAFQDSSFHTPSVPFIVPLSVIICPDRVGVFLDYEACTVSFFNITNHGFLIYKFSHCSFSQPVFPYLNPRKCGVPMTLCSPSS [human TRIM5α, 330-340 = GAPGTLFQSFV] | 0.00299 ± 0.0004
2 | MASGILVNVKEEVTCPICLELLTQPLSLDCGHSFCQACLTANHKKSMLDKGESSCPVCRISYQPENIRPNRHVANIVEKLREVKLSPEGQKVDHCARHGEKLLLFCQEDGKVICWLCERSQEHRGHHTFLTEEVAREYQVKLQAALEMLRQKQQEAEELEADIREEKASWKTQIQYDKTNVLADFEQLRDILDWEESNELQNLEKEEEDILKSLTNSETEMVQQTQSLRELISDLEHRLQGSVMELLQGVDGVIKRTENVTLKKPETFPKNQRRVFRAPDLKGMLEVFRELTDVRRYWVDVTVAPNNISCAVISEDKRQVSSPKPQIIYQAPGTRFPTLVNFNYCTGILGSQSITSGKHYWEVDVSKKTAWILGVCAGFQPDAMCNIEKNENYQPKYGYWVIGLEEGVKCSAFQDSSFHTPSVPFIVPLSVIICPDRVGVFLDYEACTVSFFNITNHGFLIYKFSHCSFSQPVFPYLNPRKCGVPMTLCSPSS [human TRIM5α, 330-340 = QAPGTRFPTLV] | 1.23 ± 1.2

same assay, conditions: library: insertions and deletions

Row | Sequence | enrichment
3 | MASGILVNVKEEVTCPICLELLTQPLSLDCGHSFCQACLTANHKKSMLDKGESSCPVCRISYQPENIRPNRHVANIVEKLREVKLSPEGQKVDHCARHGEKLLLFCQEDGKVICWLCERSQEHRGHHTFLTEEVAREYQVKLQAALEMLRQKQQEAEELEADIREEKASWKTQIQYDKTNVLADFEQLRDILDWEESNELQNLEKEEEDILKSLTNSETEMVQQTQSLRELISDLEHRLQGSVMELLQGVDGVIKRTENVTLKKPETFPKNQRRVFRAPDLKGMLEVFRELTDVRRYWVDVTVAPNNISCAVISEDKRQVSSPKPQIIYGARFNYCTGILGSQSITSGKHYWEVDVSKKTAWILGVCAGFQPDAMCNIEKNENYQPKYGYWVIGLEEGVKCSAFQDSSFHTPSVPFIVPLSVIICPDRVGVFLDYEACTVSFFNITNHGFLIYKFSHCSFSQPVFPYLNPRKCGVPMTLCSPSS [human TRIM5α, 9-codon deletion at 333] | 1.39 ± 0.8
4 | MASGILVNVKEEVTCPICLELLTQPLSLDCGHSFCQACLTANHKKSMLDKGESSCPVCRISYQPENIRPNRHVANIVEKLREVKLSPEGQKVDHCARHGEKLLLFCQEDGKVICWLCERSQEHRGHHTFLTEEVAREYQVKLQAALEMLRQKQQEAEELEADIREEKASWKTQIQYDKTNVLADFEQLRDILDWEESNELQNLEKEEEDILKSLTNSETEMVQQTQSLRELISDLEHRLQGSVMELLQGVDGVIKRTENVTLKKPETFPKNQRRVFRAPDLKGMLEVFRELTDVRRYWVDVTVAPNNISCAVISEDKRQVSSPKPQIIYGARGPQIIYGARGTRYQTFVNFNYCTGILGSQSITSGKHYWEVDVSKKTAWILGVCAGFQPDAMCNIEKNENYQPKYGYWVIGLEEGVKCSAFQDSSFHTPSVPFIVPLSVIICPDRVGVFLDYEACTVSFFNITNHGFLIYKFSHCSFSQPVFPYLNPRKCGVPMTLCSPSS [human TRIM5α, 9-codon duplication at 325] | 0.734 ± 0.72
5 | MASGILVNVKEEVTCPICLELLTQPLSLDCGHSFCQACLTANHKKSMLDKGESSCPVCRISYQPENIRPNRHVANIVEKLREVKLSPEGQKVDHCARHGEKLLLFCQEDGKVICWLCERSQEHRGHHTFLTEEVAREYQVKLQAALEMLRQKQQEAEELEADIREEKASWKTQIQYDKTNVLADFEQLRDILDWEESNELQNLEKEEEDILKSLTNSETEMVQQTQSLRELISDLEHRLQGSVMELLQGVDGVIKRTENVTLKKPETFPKNQRRVFRAPDLKGMLEVFRELTDVRRYWVDVTVAPNNISCAVISEDKRQVSSPKPQIIYGAFVNFNYCTGILGSQSITSGKHYWEVDVSKKTAWILGVCAGFQPDAMCNIEKNENYQPKYGYWVIGLEEGVKCSAFQDSSFHTPSVPFIVPLSVIICPDRVGVFLDYEACTVSFFNITNHGFLIYKFSHCSFSQPVFPYLNPRKCGVPMTLCSPSS [human TRIM5α, 7-codon deletion at 332] | 0.739 ± 0.86
6 | MASGILVNVKEEVTCPICLELLTQPLSLDCGHSFCQACLTANHKKSMLDKGESSCPVCRISYQPENIRPNRHVANIVEKLREVKLSPEGQKVDHCARHGEKLLLFCQEDGKVICWLCERSQEHRGHHTFLTEEVAREYQVKLQAALEMLRQKQQEAEELEADIREEKASWKTQIQYDKTNVLADFEQLRDILDWEESNELQNLEKEEEDILKSLTNSETEMVQQTQSLRELISDLEHRLQGSVMELLQGVDGVIKRTENVTLKKPETFPKNQRRVFRAPDLKGMLEVFRELTDVRRYWVDVTVAPNNISCAVISEDKRQVSSPKPQIGTRYQTFVNFNYCTGILGSQSITSGKHYWEVDVSKKTAWILGVCAGFQPDAMCNIEKNENYQPKYGYWVIGLEEGVKCSAFQDSSFHTPSVPFIVPLSVIICPDRVGVFLDYEACTVSFFNITNHGFLIYKFSHCSFSQPVFPYLNPRKCGVPMTLCSPSS [human TRIM5α, 5-codon deletion at 328] | 0.31 ± 0.083
7 | MASGILVNVKEEVTCPICLELLTQPLSLDCGHSFCQACLTANHKKSMLDKGESSCPVCRISYQPENIRPNRHVANIVEKLREVKLSPEGQKVDHCARHGEKLLLFCQEDGKVICWLCERSQEHRGHHTFLTEEVAREYQVKLQAALEMLRQKQQEAEELEADIREEKASWKTQIQYDKTNVLADFEQLRDILDWEESNELQNLEKEEEDILKSLTNSETEMVQQTQSLRELISDLEHRLQGSVMELLQGVDGVIKRTENVTLKKPETFPKNQRRVFRAPDLKGMLEVFRELTDVRRYWVDVTVAPNNISCAVISEDKRQVSSPKPPQIIYGARGTRYQTFVNFNYCTGILGSQSITSGKHYWEVDVSKKTAWILGVCAGFQPDAMCNIEKNENYQPKYGYWVIGLEEGVKCSAFQDSSFHTPSVPFIVPLSVIICPDRVGVFLDYEACTVSFFNITNHGFLIYKFSHCSFSQPVFPYLNPRKCGVPMTLCSPSS [human TRIM5α, 1-codon duplication at 325] | 2.04 ± 2.7
8 | MASGILVNVKEEVTCPICLELLTQPLSLDCGHSFCQACLTANHKKSMLDKGESSCPVCRISYQPENIRPNRHVANIVEKLREVKLSPEGQKVDHCARHGEKLLLFCQEDGKVICWLCERSQEHRGHHTFLTEEVAREYQVKLQAALEMLRQKQQEAEELEADIREEKASWKTQIQYDKTNVLADFEQLRDILDWEESNELQNLEKEEEDILKSLTNSETEMVQQTQSLRELISDLEHRLQGSVMELLQGVDGVIKRTENVTLKKPETFPKNQRRVFRAPDLKGMLEVFRELTDVRRYWVDVTVAPNNISCAVISEDKRQVSSPKPQIIYGARGTRYQTFVNFTRYQTFVNFNYCTGILGSQSITSGKHYWEVDVSKKTAWILGVCAGFQPDAMCNIEKNENYQPKYGYWVIGLEEGVKCSAFQDSSFHTPSVPFIVPLSVIICPDRVGVFLDYEACTVSFFNITNHGFLIYKFSHCSFSQPVFPYLNPRKCGVPMTLCSPSS [human TRIM5α, 9-codon duplication at 334] | 0.117 ± 0.099
9 | MASGILVNVKEEVTCPICLELLTQPLSLDCGHSFCQACLTANHKKSMLDKGESSCPVCRISYQPENIRPNRHVANIVEKLREVKLSPEGQKVDHCARHGEKLLLFCQEDGKVICWLCERSQEHRGHHTFLTEEVAREYQVKLQAALEMLRQKQQEAEELEADIREEKASWKTQIQYDKTNVLADFEQLRDILDWEESNELQNLEKEEEDILKSLTNSETEMVQQTQSLRELISDLEHRLQGSVMELLQGVDGVIKRTENVTLKKPETFPKNQRRVFRAPDLKGMLEVFRELTDVRRYWVDVTVAPNNISCAVISEDKRQVSSPKPQIIYGARGTRYQTFVNFNYVNFNYCTGILGSQSITSGKHYWEVDVSKKTAWILGVCAGFQPDAMCNIEKNENYQPKYGYWVIGLEEGVKCSAFQDSSFHTPSVPFIVPLSVIICPDRVGVFLDYEACTVSFFNITNHGFLIYKFSHCSFSQPVFPYLNPRKCGVPMTLCSPSS [human TRIM5α, 5-codon duplication at 340] | 0.61 ± 0.52
10 | MASGILVNVKEEVTCPICLELLTQPLSLDCGHSFCQACLTANHKKSMLDKGESSCPVCRISYQPENIRPNRHVANIVEKLREVKLSPEGQKVDHCARHGEKLLLFCQEDGKVICWLCERSQEHRGHHTFLTEEVAREYQVKLQAALEMLRQKQQEAEELEADIREEKASWKTQIQYDKTNVLADFEQLRDILDWEESNELQNLEKEEEDILKSLTNSETEMVQQTQSLRELISDLEHRLQGSVMELLQGVDGVIKRTENVTLKKPETFPKNQRRVFRAPDLKGMLEVFRELTDVRRYWVDVTVAPNNISCAVISEDKRQVSSPKPQIIYGARGTRYQTFVILGSQSITSGKHYWEVDVSKKTAWILGVCAGFQPDAMCNIEKNENYQPKYGYWVIGLEEGVKCSAFQDSSFHTPSVPFIVPLSVIICPDRVGVFLDYEACTVSFFNITNHGFLIYKFSHCSFSQPVFPYLNPRKCGVPMTLCSPSS [human TRIM5α, 7-codon deletion at 341] | 1.06 ± 0.63
11 | MASGILVNVKEEVTCPICLELLTQPLSLDCGHSFCQACLTANHKKSMLDKGESSCPVCRISYQPENIRPNRHVANIVEKLREVKLSPEGQKVDHCARHGEKLLLFCQEDGKVICWLCERSQEHRGHHTFLTEEVAREYQVKLQAALEMLRQKQQEAEELEADIREEKASWKTQIQYDKTNVLADFEQLRDILDWEESNELQNLEKEEEDILKSLTNSETEMVQQTQSLRELISDLEHRLQGSVMELLQGVDGVIKRTENVTLKKPETFPKNQRRVFRAPDLKGMLEVFRELTDVRRYWVDVTVAPNNISCAVISEDKRQVSSPKPQIIYGARGTRYQTFVNFCTGILGSQSITSGKHYWEVDVSKKTAWILGVCAGFQPDAMCNIEKNENYQPKYGYWVIGLEEGVKCSAFQDSSFHTPSVPFIVPLSVIICPDRVGVFLDYEACTVSFFNITNHGFLIYKFSHCSFSQPVFPYLNPRKCGVPMTLCSPSS [human TRIM5α, 2-codon deletion at 343] | 0.63 ± 0.071
12 | MASGILVNVKEEVTCPICLELLTQPLSLDCGHSFCQACLTANHKKSMLDKGESSCPVCRISYQPENIRPNRHVANIVEKLREVKLSPEGQKVDHCARHGEKLLLFCQEDGKVICWLCERSQEHRGHHTFLTEEVAREYQVKLQAALEMLRQKQQEAEELEADIREEKASWKTQIQYDKTNVLADFEQLRDILDWEESNELQNLEKEEEDILKSLTNSETEMVQQTQSLRELISDLEHRLQGSVMELLQGVDGVIKRTENVTLKKPETFPKNQRRVFRAPDLKGMLEVFRELTDVRRYWVDVTVAPNNISCAVISEDKRQVSSPKPQIIYGARGTRYQTFQTFVNFNYCTGILGSQSITSGKHYWEVDVSKKTAWILGVCAGFQPDAMCNIEKNENYQPKYGYWVIGLEEGVKCSAFQDSSFHTPSVPFIVPLSVIICPDRVGVFLDYEACTVSFFNITNHGFLIYKFSHCSFSQPVFPYLNPRKCGVPMTLCSPSS [human TRIM5α, 3-codon duplication at 337] | 0.219 ± 0.15

± gives the standard deviation of the averaged measurements. Restriction of a single-cycle SIVsab GFP reporter by TRIM5α v1-loop variants in CRFK cells. Human variants: read share among cells still uninfected after two challenges over input, higher = gained restriction. Rhesus variants: share among infected cells over input, higher = lost restriction. Reporter dose not given per row. No active / inactive call per row; the paper calls a change when both replicates lie above its controls (mean + 2 SD of stop or wild-type variants, or the top frameshift score). Residues outside the varied loop are taken from Swiss-Prot. The paper reads the human single-substitution scores as noise; they and the rhesus combinations repeat poorly (rank correlation 0.3 to 0.4), indel scores repeat only for the top variants, rhesus substitutions well (0.9).
